This is one part of the list. The full chains were built here from the parent and the listed change. Values near 0.05 are background.
B1: TEV protease; numbered along this chain (parent)
chain: MGESLFKGPRDYNPISSSICHLTNESDGHTTSLYGIGFGPFIITNKHLFRRNNGTLVVQSLHGVFKVKDTTTLQQHLVDGRDMIIIRMPKDFPPFPQKLKFREPQREERICLVTTNFQTKSMSSMVSDTSCTFPSGDGIFWKHWIQTKDGQCGSPLVSTRDGFIVGIHSASNFTNTNNYFTSVPKNFMELLTNQEAQQWVSGWRLNADSVLWGGHKVFMVKPEEPFQPVKEATQL

Variants of: B1
Test: raw area under fraction-flipped curve 0-4 h after induction (AUC4h, not background-subtracted), DNA-recorder readout of cleavage of the substrate (dimensionless); higher = more cleavage of the substrate by the protease variant
Details: temperature: 34 °C; time window: 0-4 h after rhamnose induction
Description: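 In vivo DNA recorder in E. coli TOP10(DE3) ΔrhaA at 34 °C. Each TEVp single-site mutant (parent TEVp 0) is paired with a single-site variant of the 7-mer TEVs (canonical ENLYFQ|S). The substrate sits between flexible linkers in a Bxb1-sfGFP-TEVs-SsrA fusion, so cleavage stabilises Bxb1 and speeds flipping of a recombination array, read by NGS. The value is the raw area under the fraction-flipped curve over 0-4 h after rhamnose induction (AUC4h), with ≥20 reads per time point. It is not background-subtracted; inactive controls average about 0.047.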
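Also: Bxb1 expression induced with 0.2% (w/v) L-rhamnose at OD600 near 0.5, cultures sampled hourly, flipped fraction per protease–substrate barcode pair counted by paired-end Illumina sequencing.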

Row | Variant | area with substrate EALYFQS | area with substrate EDLYFQS | area with substrate EELYFQS | area with substrate EHLYFQS | area with substrate EILYFQS | area with substrate EKLYFQS | area with substrate EMLYFQS | area with substrate EPLYFQS | area with substrate EVLYFQS | area with substrate ECLYFQS | area with substrate EGLYFQS | area with substrate ELLYFQS | area with substrate EQLYFQS | area with substrate ERLYFQS | area with substrate ESLYFQS | area with substrate ETLYFQS | area with substrate EWLYFQS | area with substrate EYLYFQS | area with substrate EFLYFQS
1 | D79N | 0.147 | 0.15 | 0.104 | 0.104 | 0.103 | 0.104 | 0.0919 | 0.117 | 0.0815 | – | – | – | – | – | – | – | – | – | –
2 | T55V | 0.116 | 0.103 | 0.115 | 0.132 | 0.0799 | 0.106 | – | – | 0.0932 | 0.106 | 0.096 | 0.122 | 0.111 | 0.0846 | 0.107 | – | – | – | –
3 | V64I | 0.121 | 0.142 | 0.108 | – | 0.0649 | – | 0.0907 | 0.0962 | – | 0.11 | – | – | 0.161 | – | 0.11 | 0.136 | – | – | –
4 | V64A | 0.11 | – | – | 0.108 | 0.0781 | 0.121 | 0.102 | – | – | 0.107 | – | – | 0.148 | 0.0958 | 0.0904 | – | 0.115 | 0.0836 | –
5 | V64D | 0.104 | – | 0.113 | – | 0.0874 | 0.111 | 0.0936 | – | 0.108 | 0.107 | – | – | 0.201 | 0.109 | 0.101 | – | 0.126 | 0.0856 | –
6 | V64M | 0.136 | – | – | 0.0946 | 0.116 | – | 0.106 | 0.122 | 0.096 | 0.1 | 0.0848 | 0.0888 | 0.124 | 0.111 | 0.0994 | 0.126 | – | 0.107 | –
7 | V64Y | 0.13 | – | – | – | – | – | – | – | 0.0814 | – | – | 0.0829 | 0.125 | – | – | – | – | – | –
8 | L73V | 0.117 | 0.11 | 0.101 | 0.0911 | 0.0998 | 0.094 | 0.087 | – | 0.0888 | 0.121 | 0.0894 | 0.0798 | – | 0.0886 | 0.0921 | 0.109 | 0.0813 | – | 0.0884
9 | R51I | 0.0934 | 0.0879 | – | – | 0.05 | 0.0886 | 0.0902 | – | 0.13 | 0.0393 | 0.0781 | – | – | 0.0904 | 0.0813 | 0.0764 | – | 0.0522 | 0.0835
10 | N45Y | 0.0536 | 0.0562 | 0.0595 | 0.0336 | 0.06 | 0.06 | 0.0599 | 0.0583 | 0.0521 | 0.0637 | 0.0567 | 0.0544 | 0.064 | 0.0659 | 0.0559 | 0.0582 | 0.0534 | – | 0.052
11 | N45L | 0.0587 | 0.0466 | – | 0.05 | 0.0366 | 0.0789 | 0.0676 | 0.0684 | 0.0549 | 0.064 | 0.0595 | 0.0545 | 0.0617 | 0.0926 | 0.0636 | – | 0.0598 | 0.0624 | –
12 | N45W | 0.0596 | 0.0566 | 0.0615 | 0.0527 | 0.0433 | 0.0686 | – | 0.103 | 0.0578 | 0.0637 | 0.0539 | 0.0552 | 0.0527 | 0.0616 | 0.0583 | – | 0.0585 | 0.0603 | 0.062
13 | N52G | 0.0442 | 0.0954 | 0.0694 | 0.0719 | 0.0699 | 0.0631 | 0.0743 | 0.0647 | 0.069 | 0.0699 | 0.0613 | – | 0.0705 | 0.0881 | 0.0813 | 0.0797 | 0.0648 | – | 0.0591
14 | H76C | 0.167 | 0.098 | 0.12 | 0.122 | 0.109 | 0.139 | 0.133 | 0.121 | 0.0968 | 0.12 | 0.106 | 0.0936 | 0.0984 | 0.115 | 0.114 | 0.123 | 0.13 | 0.0848 | 0.0937
15 | H47G | 0.0787 | 0.051 | 0.061 | 0.0542 | 0.0463 | 0.0492 | 0.061 | 0.0476 | 0.0578 | 0.054 | 0.0581 | 0.0665 | 0.0561 | 0.0488 | 0.0603 | 0.0564 | 0.0426 | 0.0626 | 0.0669
16 | P96C | 0.122 | – | – | – | 0.0858 | 0.136 | – | 0.136 | – | 0.112 | – | 0.11 | 0.123 | 0.154 | 0.126 | – | 0.117 | 0.114 | –
17 | P96A | 0.121 | – | 0.115 | 0.151 | 0.111 | – | 0.118 | – | 0.0904 | 0.107 | – | 0.0939 | – | 0.104 | 0.108 | – | 0.118 | – | –
18 | P96E | 0.118 | 0.124 | – | – | – | – | 0.105 | – | 0.105 | 0.104 | 0.0839 | – | 0.123 | 0.107 | 0.0984 | 0.128 | – | 0.142 | –
19 | T72Q | 0.121 | 0.112 | – | – | 0.103 | – | 0.12 | – | – | 0.119 | 0.0789 | – | – | – | 0.118 | 0.0916 | – | 0.112 | 0.102
20 | T72F | 0.0817 | 0.113 | – | – | 0.0735 | 0.0587 | 0.0932 | 0.0969 | – | 0.0825 | 0.0774 | 0.071 | 0.0985 | – | 0.0847 | 0.093 | 0.0618 | 0.0863 | 0.0995
21 | T72E | 0.0969 | – | – | – | – | – | – | – | – | – | – | – | 0.109 | – | 0.102 | 0.0874 | – | – | –
22 | L77F | 0.0663 | 0.0689 | 0.0687 | 0.0733 | 0.0614 | 0.122 | 0.0532 | 0.0672 | 0.0801 | 0.0616 | 0.0521 | 0.0662 | 0.0607 | 0.0619 | 0.0611 | – | 0.0639 | 0.0657 | 0.0238
23 | F65A | 0.109 | 0.114 | 0.125 | 0.0621 | 0.0643 | 0.113 | 0.131 | – | 0.0953 | 0.106 | 0.0923 | 0.0852 | 0.111 | 0.0945 | 0.0881 | – | 0.0917 | – | –
24 | G63W | 0.101 | 0.108 | 0.135 | 0.0799 | 0.0847 | 0.124 | 0.0932 | 0.101 | – | 0.0963 | 0.0883 | 0.0963 | 0.0997 | 0.0773 | 0.0892 | 0.0938 | 0.0754 | 0.0744 | 0.0868
25 | R81H | 0.0921 | 0.113 | – | 0.106 | 0.108 | – | – | 0.118 | 0.0839 | – | 0.0748 | 0.07 | 0.123 | 0.0942 | 0.0863 | – | 0.0862 | 0.102 | 0.0945
26 | K66S | 0.121 | 0.129 | 0.14 | – | 0.097 | 0.108 | 0.106 | – | 0.0828 | 0.208 | 0.0929 | 0.0683 | 0.119 | – | – | 0.117 | – | 0.117 | –

Source: the supplement of paper PMC12217912
